# Laboratory results published in the supplement of paper PMC8728848.
# Some of the results follow.
# B1: rEtpA (Escherichia coli) (protein)
# chain: MNRIYKLKFDKRRNELVVVSEITTGVGNAKATGSVEGEKSPRRGVRAMALSLLSGMMIMAHPAMSANLPTGGQIVAGSGSIQTPSGNQMNIHQNSQNMVANWNSFDIGKGNTVQFDQPSSSAVALNRVVGGGESQIMGNLKANGQVFLVNPNGVLFGEGASVSTSGFVASTRDIKNDDFMNRRYTFSGGQKAGAAIVNQGELTTNAGGYIVLAADRVSNSGTIRTPGGKTVLAASERITLQLDNGGLMSVQVTGDVVNALVENRGLVSARDGQVYLTALGRGMLMNTVLNVSGVVEASGMHRQDGNIVLDGGDSGVVHLSGTLQADNASGQGGKVVVQGKNILLDKGSNITATGGQGGGEVYVGGGWQGKDSNIRNADKVVMQGGARIDVSATQQGNGGTAVLWSDSYTNFHGQISAKGGETGGNGGRVETSSHGNLQAFGTVSASAKKGKAGNWLLDSADITIVNGSNVSKTETTQSPPHTQFAPTAAGSAVSNTSINNRLNNGTSVTILTHRTRTGTAQGGNITVNAAINKSNGSDVNLTLQAGGNITVNNSITSTEGKLNVNLSGARTSNGSITISNNANITTNGGDITVGTTNTSNRVNISINNTTLNASNGNIQLTGTGTDSGILFAGNNRLTASNIALTGNSTSGNAINLTGTATLNATNNITLTGSSTSGNAINLKGNNTLTASNITLTGESTSGNAINLTDTTGTTTLNATNNITMQGTRVQIKHSNITAGNFALNATVAGSEISNTTLTATNNINLAAKTNSASSGVYLKDARITSTNGSITANGTATANGKATHLDGNVTLNASNGRIKLTGNGHGSASGILFAGNNRLTASNIALTGNSTSGNAINLTGTATLNATNDITLTGSSTSGNAINLTGTATLNATNNITLTGSSTSGNAINLKGNNTLTASNITLTGESTSGNAINLTDTTGTTTLNATNNITMQGTRVQIKHSNITAGNFALNATVAGSEISNTTLTATNNINLAAKTNSASSGVYLKDARITSTNGSITANGTATANGKATHLDGNVTLNASNGRIKLTGNGHGSASGILFAGNNRLTASNIALTGNSTSGNAINLTGTATLNATNDITLTGSSTSGNAINLTGTATLNATNNITLTGSSTSGNAINLKGNNTLTASNITLTGESTSGNAINLTDTTGTTTLNATNNITMQGTRVQIKHSNITAGNFALNATVAGSEISNTTLTATNNINLAAKTNSASSGVYLKDARITSTNGSITANGTATANGKATHLDGNVTLNASNGRIKLTGNGHGSASGILFAGNNRLTASNIALTGNSTSGNAINLTGTATLNATNDITLTGSSTSGNAINLTGTATLNATNNITLTGSSTSGNAINLKGNNTLTASNITLTGESTSGNAINLTDTTGTTTLNATNNITMQGTRVQIKHSNITAGNFALNATVAGSEISNTTLTATNNINLAAKTNSASSGVYLKDARITSTNGSITTNGTATANGKATHLDGNVTLNASNGRIKLTGNGHGSASGILFAGNNRLTASNIALTGNSTSGNAINLTGTATLNATNDITLTGSSTSGNAINLTGTATLNATNNITLTGSSTSGNAINLKGNNTLTASNITLTGESTSGNAINLTDTTGTTTLNATNNITMQGTRVQIKHSNITAGNFALNATVAGSEISNTTLTATNNINLAAKTNSASSGVYLKDARITSTNGSITANGTAPANDNATYLDGNVTLNASNGSIKLTGNGNGSTSGILFAGNNTLTASNITLTGNSEVYWQKLGPEQKLISEEDLNSAVDHHHHHH
# Legend:
# Experiment in all cases: glycan array binding signal (z-score within array); higher = stronger binding
# Details in all cases: glycan notation: IUPAC condensed, linker removed
# [1] = biological target: Gal(a1-3)[Gal(a1-4)]Gal(b1-4)GlcNAc
# Procedure, shortened: (§1)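 Columns mapping to the same glycan were averaged after glycan names were converted to IUPAC-condensed notation. The data come from 3228 arrays in the Consortium for Functional Glycomics database, limited to those with an available protein sequence. Binding is reported as a within-array Z-score averaged across arrays of one protein sequence and across linkers.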
# [2] = biological target: Gal(a1-4)Gal(b1-3)GlcNAc(b1-2)Man(a1-3)[Gal(a1-4)Gal(b1-3)GlcNAc(b1-2)Man(a1-6)]Man(b1-4)GlcNAc(b1-4)GlcNAc
# Procedure, shortened: as §1
# [3] = biological target: Gal(a1-4)Gal(b1-4)Glc
# Procedure, shortened: as §1
# [4] = biological target: Gal(a1-4)Gal(b1-4)GlcNAc
# Procedure, shortened: as §1
# [5] = biological target: Gal(a1-4)Gal(b1-4)GlcNAc(b1-2)Man(a1-3)[Gal(a1-4)Gal(b1-4)GlcNAc(b1-2)Man(a1-6)]Man(b1-4)GlcNAc(b1-4)GlcNAc
# Procedure, shortened: as §1
# [6] = biological target: Gal(a1-4)Gal(b1-4)GlcNAc(b1-3)Gal(b1-4)Glc
# Procedure, shortened: as §1
# [7] = biological target: Gal(a1-4)GlcNAc
# Procedure, shortened: as §1
# [8] = biological target: Gal(a1-6)Glc
# Procedure, shortened: as §1
# [9] = biological target: Gal(b1-2)Gal
# Procedure, shortened: as §1
# [10] = biological target: Gal(b1-3)Gal
# Procedure, shortened: as §1
# [11] = biological target: Gal(b1-3)Gal(b1-4)GlcNAc
# Procedure, shortened: as §1
# [12] = biological target: Gal(b1-3)GalNAc
# Procedure, shortened: as §1
# [13] = biological target: Gal(b1-3)GalNAc(a1-3)[Fuc(a1-2)]Gal(b1-4)Glc
# Procedure, shortened: as §1
# [14] = biological target: Gal(b1-3)GalNAc(a1-3)[Fuc(a1-2)]Gal(b1-4)GlcNAc
# Procedure, shortened: as §1
# [15] = biological target: Gal(b1-3)GalNAc(b1-3)Gal
# Procedure, shortened: as §1
# [16] = biological target: Gal(b1-3)GalNAc(b1-3)Gal(a1-4)Gal(b1-4)Glc
# Procedure, shortened: as §1
# [17] = biological target: Gal(b1-3)GalNAc(b1-4)Gal(b1-4)Glc
# Procedure, shortened: as §1
# [18] = biological target: Gal(b1-3)GalNAc(b1-4)[Neu5Ac(a2-3)]Gal(b1-4)Glc
# Procedure, shortened: as §1
# [19] = biological target: Gal(b1-3)GlcNAc
# Procedure, shortened: as §1
# [20] = biological target: Gal(b1-3)GlcNAc(a1-3)Gal(b1-4)GlcNAc
# Procedure, shortened: as §1
# [21] = biological target: Gal(b1-3)GlcNAc(a1-6)Gal(b1-4)GlcNAc
# Procedure, shortened: as §1
# [22] = biological target: Gal(b1-3)GlcNAc(b1-2)Man
# Procedure, shortened: as §1
# [23] = biological target: Gal(b1-3)GlcNAc(b1-2)Man(a1-3)[Gal(b1-3)GlcNAc(b1-2)Man(a1-6)]Man(b1-4)GlcNAc(b1-4)GlcNAc
# Procedure, shortened: as §1
binder,measurement,setting,value
B1,glycan array binding signal (z-score),[1],0.009
same,glycan array binding signal (z-score),[2],0.47
same,glycan array binding signal (z-score),[3],-0.276
same,glycan array binding signal (z-score),[4],-0.243
same,glycan array binding signal (z-score),[5],0.288
same,glycan array binding signal (z-score),[6],-0.072
same,glycan array binding signal (z-score),[7],0.065
same,glycan array binding signal (z-score),[8],0.751
same,glycan array binding signal (z-score),[9],-0.384
same,glycan array binding signal (z-score),[10],-0.312
same,glycan array binding signal (z-score),[11],-0.041
same,glycan array binding signal (z-score),[12],-0.107
same,glycan array binding signal (z-score),[13],-0.178
same,glycan array binding signal (z-score),[14],-0.27
same,glycan array binding signal (z-score),[15],-0.269
same,glycan array binding signal (z-score),[16],-0.351
same,glycan array binding signal (z-score),[17],-0.272
same,glycan array binding signal (z-score),[18],-0.336
same,glycan array binding signal (z-score),[19],-0.234
same,glycan array binding signal (z-score),[20],-0.07
same,glycan array binding signal (z-score),[21],0.606
same,glycan array binding signal (z-score),[22],1.81
same,glycan array binding signal (z-score),[23],1.17
